In PubChem BioAssay AID602310 (National Center for Advancing Translational Sciences (NCATS), 2012):
Among all 410,000 compounds or so, about 310 (0.076%) were called active. Inconclusive means that the source gave no clear call. Such entries were picked first, then a sample of the others. Calls come from the whole dose curve; as a rule, active = well fitted curve in the direction sought with a large enough effect; inconclusive = small, poorly fitted or top-dose-only effect; inactive = flat fitted curve, though single readings scatter. A potency beside an inconclusive call is a rough fit, not a confirmed value.
Note: nearly all actives have a fitted effect of over 60% in size.
Potency is the fitted concentration of half-maximal effect; tags give direction and shape of the fitted curve.

Each compound was assayed against DNA dC->dU-editing enzyme APOBEC-3G (Homo sapiens) (UniProt Q9HC16) (assay: qHTS for Inhibitors of Vif-A3G Interactions: qHTS). Conditions: HeLa A3G-eYFP + Vif (tagged APOBEC3G with the HIV-1 protein that degrades it), YFP fluorescence, overnight; series mostly up to 46.1 µM.
UniProt Q9HC16, sequence (Q9HC16 whole entry, looked up): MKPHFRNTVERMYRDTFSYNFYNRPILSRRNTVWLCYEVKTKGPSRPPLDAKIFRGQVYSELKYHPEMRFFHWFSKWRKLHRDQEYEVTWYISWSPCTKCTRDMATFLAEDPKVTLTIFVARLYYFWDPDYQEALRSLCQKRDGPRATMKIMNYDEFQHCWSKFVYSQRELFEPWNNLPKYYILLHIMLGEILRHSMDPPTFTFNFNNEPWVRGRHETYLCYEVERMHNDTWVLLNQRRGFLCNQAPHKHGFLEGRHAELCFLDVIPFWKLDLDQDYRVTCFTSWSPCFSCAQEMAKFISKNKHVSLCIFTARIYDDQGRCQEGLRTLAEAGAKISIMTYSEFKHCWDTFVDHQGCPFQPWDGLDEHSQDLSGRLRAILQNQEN
How it was run: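 HeLa cells stably expressing Vif and C-terminally eYFP-tagged A3G, seeded overnight at 37 deg C, then exposed to compound by pintool overnight at 37 deg C. Rise in yellow fluorescence (Ex 488/Em 500-530, Acumen) marks blocked Vif-driven A3G degradation.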
In the case of `N#Cc1cc(C(=O)c2cc(F)ccc2O)cn(-c2nccs2)c1=O`, the Potency is reported as inconclusive: 25.1 µM [inhibitor, single point]. `CCN(CC)c1ccc(/C=N/NC(=O)OC)c(O)c1` was tested, and the Potency was inconclusive: 22.4 µM [inhibitor, single point]. With `N#CC1=C(N)Oc2cc(N)ccc2C1c1cc(Br)cs1` (stereo unspecified) the Potency was inconclusive: 2.82 µM [inhibitor, full curve, poor fit]. With `O=CNc1cc(-c2ccoc2)cn2c(-c3ccc(F)cc3)cnc12` the Potency was inconclusive: 22.4 µM [inhibitor, single point]. For `O=c1c2c(C(F)(F)F)cc(C(F)(F)F)nc2[nH]n1-c1ccccc1`, the Potency was “inactive”. `CCn1c(SCC(=O)c2c[nH]c3ccccc23)nnc1-c1cccs1` was tested, and the Potency was active: 11.2 µM. For `O=C1C=CC(=O)C(C2=C3C(=O)N(CCc4ccccc4)CC(=O)N3CCC2)=C1`, the Potency was inconclusive: 17.8 µM [inhibitor, single point]. With `Cc1cccc(C)c1OCc1cc(C(=O)N2CC3C[C@@H]4CC2C[C@H](C3)C4)no1` the Potency was “inactive”. For `Cc1c(Cl)cccc1NC(=O)CCn1cnnn1`, the Potency was “inactive”. With `C#Cc1ccc(CN2CCN(CCc3ccccc3)C(CCO)C2)cc1` (stereo unspecified) the Potency was “inactive”. `Cc1c(N=Cc2cc3c(cc2[N+](=O)[O-])OCO3)cccc1[N+](=O)[O-]` was tested, and the Potency was “inactive”. For `COC(=O)C1=C(C)NC(=O)CC1c1ccccc1F` (stereo unspecified), the Potency was “inactive”. `ICC[n+]1csc2ccccc21` was tested, and the Potency was “inactive”. For `CC(=O)c1cccc(-c2ccnc3c2CC(C(=O)Nc2cccc(NS(C)(=O)=O)c2)O3)c1` (stereo unspecified), the Potency was inconclusive: 14.1 µM [inhibitor, partial curve, poor fit]. For `CN(C)c1ccc(/C=N/NC(=O)c2ccccc2)cc1`, the Potency was inconclusive: 17.8 µM [inhibitor, single point]. `CCn1c(=O)c2cc(C(=O)NCCc3ccc(OC)c(OC)c3)sc2c2ccccc21` was tested, and the Potency was “inactive”. With `Cc1cc(/C=C2\SC(=Nc3ccccc3)NC2=O)c(C)n1-c1ccc(S(N)(=O)=O)cc1` the Potency was inconclusive: 3.98 µM [inhibitor, partial curve, poor fit]. For `Cc1ccc(NC(=O)c2cnc(SCC(=O)N3CCCc4ccccc43)n(C)c2=O)cc1C`, the Potency was “inactive”. With `CN(C)c1ccc(/C=C/C(=O)c2cccc(Br)c2)cc1` the Potency was inconclusive: 15.8 µM [inhibitor, single point]. With `Nc1ccc(Cn2ccc3c4c(N)nc(N)nc4ccc32)cc1` the Potency was inconclusive: 35.5 µM [inhibitor, single point]. In the case of `O=c1cc(Nc2ccc3c(c2)OCCO3)[nH]c(=O)n1C1CCCCC1`, the Potency is reported as inconclusive: 8.91 µM [inhibitor, partial curve, poor fit]. `COc1ccc(-c2nnc3n2N=C(C)CS3)cc1` was tested, and the Potency was “inactive”. With `COC(=O)c1ccc(COc2ccccc2/C=N/NS(=O)(=O)c2ccccc2)cc1` the Potency was inconclusive: 10 µM [inhibitor, partial curve, poor fit]. In the case of `CCOc1ccc2nc(-c3ccccc3)[nH]c2c1`, the Potency is reported as inconclusive: 6.31 µM [inhibitor, full curve, poor fit]. In the case of `O=C(NCC(c1cccs1)N1CCOCC1)c1cc(F)cc(F)c1` (stereo unspecified), the Potency is reported as inconclusive: 7.08 µM [inhibitor, full curve, poor fit]. For `COc1ccc(Cn2nnnc2C(CC(C)C)N2CCN(c3ccccc3)CC2)cc1` (stereo unspecified), the Potency was “inactive”. For `Cc1sc2ncnc(SCc3ccco3)c2c1C`, the Potency was inconclusive: 14.1 µM [inhibitor, single point]. With `O=C(N=C1SC2CS(=O)(=O)CC2N1c1cc(Cl)ccc1Cl)C1CC1` (stereo unspecified) the Potency was inconclusive: 31.6 µM [inhibitor, single point]. `Fc1cccc(Cl)c1CSc1ccc(-c2cccnc2)nn1` was tested, and the Potency was “inactive”. In the case of `O=CNc1cc(-c2ccsc2)cn2c(-c3ccccc3)cnc12`, the Potency is reported as inconclusive: 25.1 µM [inhibitor, single point]. `COc1ccccc1/C=C/C(=O)NC(=S)NCC1CCCO1` (stereo unspecified) was tested, and the Potency was “inactive”. In the case of `O=C(CCl)Nc1c(C(=O)Nc2ccc3c(c2)OCCO3)oc2ccccc12`, the Potency is reported as inconclusive: 22.4 µM [inhibitor, single point]. `Cc1cc(C)n(S(=O)(=O)/C=C/c2ccccc2)n1` was tested, and the Potency was inconclusive: 12.6 µM [inhibitor, partial curve]. In the case of `CC(=O)c1cccc(Nc2c3c(nc4ccccc24)CCC3)c1`, the Potency is reported as inconclusive: 1.12 µM [inhibitor, full curve, poor fit]. `COc1ccc(C=O)cc1COc1ccccc1F` was tested, and the Potency was inconclusive: 22.4 µM [inhibitor, single point]. `COc1cccc(-c2cccc(-c3nc(C(=O)NCc4ccc5c(c4)OCO5)cc4c3[C@H](CCO)N(S(=O)C(C)(C)C)C4)c2)c1` (stereo partly specified) was tested, and the Potency was inconclusive: 35.5 µM [inhibitor, single point]. In the case of `CCN1CCc2nc(N)sc2C1`, the Potency is reported as “inactive”. With `Cc1cc(C(=O)Cn2ncc(Cl)c(Cl)c2=O)c(C)n1CC(F)(F)F` the Potency was inconclusive: 22.4 µM [inhibitor, single point]. With `Cc1ccccc1-c1nc(CS(=O)CC(=O)NCc2ccccc2)c(C)o1` (stereo unspecified) the Potency was “inactive”. With `CCC(=O)Nc1c(C#N)c2nc3ccccc3nc2n1C1CCCCC1` the Potency was “inactive”. In the case of `CC(=NCCc1c(C)[nH]c2ccc(C)cc12)C1=C(O)CC(c2ccccc2)CC1=O` (stereo unspecified), the Potency is reported as inconclusive: 1.78 µM [inhibitor, partial curve, poor fit]. In the case of `COc1cc(-c2nc3cnccn3c2Nc2c(C)cccc2C)ccc1O`, the Potency is reported as inconclusive: 6.31 µM [inhibitor, partial curve, poor fit]. For `Cc1ccc(S(=O)(=O)N(CC2CO2)c2cccc([N+](=O)[O-])c2)cc1` (stereo unspecified), the Potency was inconclusive: 25.1 µM [inhibitor, single point]. With `O=C(/C=C/c1ccccc1)COC(=O)c1ccccc1` the Potency was inconclusive: 35.5 µM [inhibitor, single point]. For `COc1cccc2sc3cc(C#CC4(O)CCCCC4)ccc3c(=O)c12`, the Potency was inconclusive: 15.8 µM [inhibitor, single point]. `Cc1ccc(S(=O)(=O)N(C)C[C@@H]2Oc3ccc(NC(=O)CCC(F)(F)F)cc3CC(=O)N([C@@H](C)CO)C[C@@H]2C)cc1` was tested, and the Potency was inconclusive: 1.26 µM [inhibitor, full curve, poor fit].
